These are yes or no findings as the source states them, for the method shown. In cells and extracts the contact can be indirect. Some entries that bind do so weakly or less than the wild type. For some of these results: Sequences can lack the tags named with a protein.
Columns and labels:
[1] = target: T1, murine C11orf94 equipped with a C-terminal triple-FLAG tag (mouse) (UniProt Q8CF31); assay: co-IP; transfected HEK cells; lysis with 1% Triton X-100; C11orf94-3xFLAG pulled down with anti-FLAG and protein G agarose beads; Western blot
T1 sequence: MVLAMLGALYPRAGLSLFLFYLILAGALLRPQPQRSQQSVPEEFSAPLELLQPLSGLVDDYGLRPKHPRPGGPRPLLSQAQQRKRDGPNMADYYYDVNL

SPPL2c-3xFLAG (mouse) = target: T2, SPPL2c-3xFLAG (mouse) (UniProt A2A6C4); assay: co-IP; CHAPSO-solubilized proteins from transfected HeLa cells precipitated with anti-FLAG beads; Western blot
T2 sequence: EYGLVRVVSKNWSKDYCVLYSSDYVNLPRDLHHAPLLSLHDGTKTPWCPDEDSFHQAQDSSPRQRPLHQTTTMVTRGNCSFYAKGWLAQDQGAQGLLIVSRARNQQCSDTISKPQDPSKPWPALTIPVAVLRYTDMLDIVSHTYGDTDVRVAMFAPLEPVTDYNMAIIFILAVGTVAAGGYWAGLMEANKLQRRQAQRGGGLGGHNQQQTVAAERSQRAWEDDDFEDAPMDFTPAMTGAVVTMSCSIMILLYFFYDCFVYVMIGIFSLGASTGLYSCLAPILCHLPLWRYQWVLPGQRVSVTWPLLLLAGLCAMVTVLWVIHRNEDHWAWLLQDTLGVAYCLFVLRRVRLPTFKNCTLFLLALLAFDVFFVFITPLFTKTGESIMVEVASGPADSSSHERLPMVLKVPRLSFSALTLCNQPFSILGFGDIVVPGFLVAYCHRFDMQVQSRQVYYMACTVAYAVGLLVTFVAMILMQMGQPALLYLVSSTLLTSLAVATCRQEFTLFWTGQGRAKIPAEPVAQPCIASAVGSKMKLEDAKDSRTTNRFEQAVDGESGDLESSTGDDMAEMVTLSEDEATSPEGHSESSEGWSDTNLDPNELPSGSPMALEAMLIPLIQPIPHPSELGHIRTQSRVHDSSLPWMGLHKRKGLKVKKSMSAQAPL

[2] = target: T3, Izumo1 (endogenous, mouse testis and sperm) (mouse (endogenous in testis and sperm)) (UniProt Q9D9J7); assay: co-IP; Izumo1 precipitated from CHAPSO lysates of noncapacitated sperm cells of Wt or C11orf94-deficient mice with anti-Izumo1 coupled to agarose (Pierce Direct IP kit); Western blot
T3 sequence: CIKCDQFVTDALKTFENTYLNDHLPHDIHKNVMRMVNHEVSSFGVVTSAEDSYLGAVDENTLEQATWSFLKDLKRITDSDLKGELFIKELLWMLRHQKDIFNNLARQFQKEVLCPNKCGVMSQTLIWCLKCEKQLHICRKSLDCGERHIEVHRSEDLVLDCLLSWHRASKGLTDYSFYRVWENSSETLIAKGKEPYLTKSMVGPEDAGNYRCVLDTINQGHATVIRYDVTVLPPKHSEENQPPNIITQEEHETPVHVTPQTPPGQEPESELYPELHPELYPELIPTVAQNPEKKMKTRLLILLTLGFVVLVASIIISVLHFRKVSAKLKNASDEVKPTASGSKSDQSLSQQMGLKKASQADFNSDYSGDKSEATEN

[3] = target: T4, SPPL2c (endogenous, mouse testis) (mouse (endogenous in testis)) (UniProt A2A6C4); assay: co-IP; testes from wild-type or Sppl2c-/- mice lysed in 0.5% CHAPSO; SPPL2c precipitated with a specific antibody and protein G agarose; Western blot
T4 sequence: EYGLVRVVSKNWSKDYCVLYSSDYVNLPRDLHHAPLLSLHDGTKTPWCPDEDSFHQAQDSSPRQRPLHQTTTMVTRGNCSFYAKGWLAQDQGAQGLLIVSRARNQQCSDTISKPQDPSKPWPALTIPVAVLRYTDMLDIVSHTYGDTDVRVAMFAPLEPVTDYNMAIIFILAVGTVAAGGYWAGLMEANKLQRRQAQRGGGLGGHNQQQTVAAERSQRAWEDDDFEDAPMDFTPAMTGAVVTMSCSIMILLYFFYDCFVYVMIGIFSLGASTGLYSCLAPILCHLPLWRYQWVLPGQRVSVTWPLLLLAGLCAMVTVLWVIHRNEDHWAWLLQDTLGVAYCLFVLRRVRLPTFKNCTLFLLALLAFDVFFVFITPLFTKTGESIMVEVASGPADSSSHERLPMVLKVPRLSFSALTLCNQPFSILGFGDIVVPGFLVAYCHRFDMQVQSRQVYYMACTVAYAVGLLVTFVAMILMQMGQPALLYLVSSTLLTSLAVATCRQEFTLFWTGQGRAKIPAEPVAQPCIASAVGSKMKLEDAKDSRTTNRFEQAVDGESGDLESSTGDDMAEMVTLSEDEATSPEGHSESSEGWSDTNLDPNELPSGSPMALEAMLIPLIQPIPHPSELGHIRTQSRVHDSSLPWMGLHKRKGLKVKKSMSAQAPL

[4] = target: T5, murine C11orf94 equipped with a C-terminal triple-FLAG tag (mouse), Q8CF31; assay: co-IP; CHAPSO-solubilized proteins from transfected HeLa cells precipitated with anti-FLAG beads; Western blot; conditions: remark: other sources report otherwise
T5 chain: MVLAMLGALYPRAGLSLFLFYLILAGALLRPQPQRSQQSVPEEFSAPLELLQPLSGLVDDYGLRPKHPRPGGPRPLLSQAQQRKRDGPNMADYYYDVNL

[5] = target: T6, C11orf94 (endogenous, mouse testis) (mouse (endogenous in testis)) (UniProt Q8CF31); assay: co-IP; C11orf94 precipitated from CHAPSO homogenates of Wt or C11orf94-/- testes with anti-C11orf94 Sepharose; Western blot
T6 sequence: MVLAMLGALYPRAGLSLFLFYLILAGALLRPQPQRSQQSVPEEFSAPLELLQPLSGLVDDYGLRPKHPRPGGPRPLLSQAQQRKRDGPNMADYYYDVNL

B1: mSPPL2c-myc (enzyme, UniProt A2A6C4 29-690)
chain: EYGLVRVVSKNWSKDYCVLYSSDYVNLPRDLHHAPLLSLHDGTKTPWCPDEDSFHQAQDSSPRQRPLHQTTTMVTRGNCSFYAKGWLAQDQGAQGLLIVSRARNQQCSDTISKPQDPSKPWPALTIPVAVLRYTDMLDIVSHTYGDTDVRVAMFAPLEPVTDYNMAIIFILAVGTVAAGGYWAGLMEANKLQRRQAQRGGGLGGHNQQQTVAAERSQRAWEDDDFEDAPMDFTPAMTGAVVTMSCSIMILLYFFYDCFVYVMIGIFSLGASTGLYSCLAPILCHLPLWRYQWVLPGQRVSVTWPLLLLAGLCAMVTVLWVIHRNEDHWAWLLQDTLGVAYCLFVLRRVRLPTFKNCTLFLLALLAFDVFFVFITPLFTKTGESIMVEVASGPADSSSHERLPMVLKVPRLSFSALTLCNQPFSILGFGDIVVPGFLVAYCHRFDMQVQSRQVYYMACTVAYAVGLLVTFVAMILMQMGQPALLYLVSSTLLTSLAVATCRQEFTLFWTGQGRAKIPAEPVAQPCIASAVGSKMKLEDAKDSRTTNRFEQAVDGESGDLESSTGDDMAEMVTLSEDEATSPEGHSESSEGWSDTNLDPNELPSGSPMALEAMLIPLIQPIPHPSELGHIRTQSRVHDSSLPWMGLHKRKGLKVKKSMSAQAPL
binding [1]: binds

B2: Izumo1-myc (protein, UniProt Q9D9J7 22-397)
chain: CIKCDQFVTDALKTFENTYLNDHLPHDIHKNVMRMVNHEVSSFGVVTSAEDSYLGAVDENTLEQATWSFLKDLKRITDSDLKGELFIKELLWMLRHQKDIFNNLARQFQKEVLCPNKCGVMSQTLIWCLKCEKQLHICRKSLDCGERHIEVHRSEDLVLDCLLSWHRASKGLTDYSFYRVWENSSETLIAKGKEPYLTKSMVGPEDAGNYRCVLDTINQGHATVIRYDVTVLPPKHSEENQPPNIITQEEHETPVHVTPQTPPGQEPESELYPELHPELYPELIPTVAQNPEKKMKTRLLILLTLGFVVLVASIIISVLHFRKVSAKLKNASDEVKPTASGSKSDQSLSQQMGLKKASQADFNSDYSGDKSEATEN
binding (SPPL2c-3xFLAG (mouse)): binds

B3: ACE3 (endogenous, mouse sperm) (protein, UniProt D0G895 24-737)
chain: VGETSLNDFYSEAQAKLFLQFYEQTAQVVLNEFMEATWNYVTNITKQNQKNMLQKEADRSQFMLYFSTRARMFRTDHFLNQDVKRMLRKLQNIDKSALPTEDLLEYNRLLTYMETAYNRAEVCLDEGPCLTLEPDLQEIMATSRDQKELLWAWQGWRDAVGRQLRPVFEDYVRLSNKAAQYNGYKDMGALWRSKYESDTLEEDLEQLYKELQPLYLNLHAYVRRSLYRYYGPELIDLRGPIPAHLLGNMWAQSWNNILDLVLPYPTKAPEDITAIMKIQHWRPEKMFEEANLFFTSMGMLPAPPAFWIKSMMEKPADGREVECHTSSWNFYKFNDFRVKKCTEVTLEDLLSVFHQMGHIQYFLQYQNLSVIYQEGASPAFEEAVGSVIALSVSSHKYLLARGLLSQPHQDSEEEVNFLLGIALEKIAFIPFSYLVDKFRWKIFDGTISKITYNQEWWNFRLKYQGLCPPVPRSDDDFDPGAKFHIPANVPYIRYFLGLILQFQLHEALCEASGHVGPLHQCDNYNSKVAGKILGDLLKLGSSRPWREVLQEVTGESNISTKAFLTYFKPLMDWLVTENVKQGDTLGWPDFSCSFEEKITSKVSFLGTDTEPEQAYLGQWVLLSMSFFMLVLILALGFRLHYLEKQLLDEDTMILKTLPYSYFLGIAMEPHQAARKQWLLLGLCCILMLCCIGLLIRIVTQNTENTPWMKNEGQS
binding [2]: binds weakly

B4: C11orf94 (endogenous, mouse testis) (protein, UniProt Q8CF31 1-99)
chain: MVLAMLGALYPRAGLSLFLFYLILAGALLRPQPQRSQQSVPEEFSAPLELLQPLSGLVDDYGLRPKHPRPGGPRPLLSQAQQRKRDGPNMADYYYDVNL
binding [3]: binds

B5: SPPL2c F455L (enzyme, UniProt A2A6C4 29-690)
chain: EYGLVRVVSKNWSKDYCVLYSSDYVNLPRDLHHAPLLSLHDGTKTPWCPDEDSFHQAQDSSPRQRPLHQTTTMVTRGNCSFYAKGWLAQDQGAQGLLIVSRARNQQCSDTISKPQDPSKPWPALTIPVAVLRYTDMLDIVSHTYGDTDVRVAMFAPLEPVTDYNMAIIFILAVGTVAAGGYWAGLMEANKLQRRQAQRGGGLGGHNQQQTVAAERSQRAWEDDDFEDAPMDFTPAMTGAVVTMSCSIMILLYFFYDCFVYVMIGIFSLGASTGLYSCLAPILCHLPLWRYQWVLPGQRVSVTWPLLLLAGLCAMVTVLWVIHRNEDHWAWLLQDTLGVAYCLFVLRRVRLPTFKNCTLFLLALLAFDVFFVFITPLFTKTGESIMVEVASGPADSSSHERLPMVLKVPRLSFSALTLCNQPFSILGLGDIVVPGFLVAYCHRFDMQVQSRQVYYMACTVAYAVGLLVTFVAMILMQMGQPALLYLVSSTLLTSLAVATCRQEFTLFWTGQGRAKIPAEPVAQPCIASAVGSKMKLEDAKDSRTTNRFEQAVDGESGDLESSTGDDMAEMVTLSEDEATSPEGHSESSEGWSDTNLDPNELPSGSPMALEAMLIPLIQPIPHPSELGHIRTQSRVHDSSLPWMGLHKRKGLKVKKSMSAQAPL
binding [1]: binds

B6: Izumo1-HA, Q9D9J7 22-397 (protein)
chain: CIKCDQFVTDALKTFENTYLNDHLPHDIHKNVMRMVNHEVSSFGVVTSAEDSYLGAVDENTLEQATWSFLKDLKRITDSDLKGELFIKELLWMLRHQKDIFNNLARQFQKEVLCPNKCGVMSQTLIWCLKCEKQLHICRKSLDCGERHIEVHRSEDLVLDCLLSWHRASKGLTDYSFYRVWENSSETLIAKGKEPYLTKSMVGPEDAGNYRCVLDTINQGHATVIRYDVTVLPPKHSEENQPPNIITQEEHETPVHVTPQTPPGQEPESELYPELHPELYPELIPTVAQNPEKKMKTRLLILLTLGFVVLVASIIISVLHFRKVSAKLKNASDEVKPTASGSKSDQSLSQQMGLKKASQADFNSDYSGDKSEATEN
binding [4]: binds

B7: Izumo1 (endogenous, mouse testis and sperm) (protein, UniProt Q9D9J7 22-397)
chain: CIKCDQFVTDALKTFENTYLNDHLPHDIHKNVMRMVNHEVSSFGVVTSAEDSYLGAVDENTLEQATWSFLKDLKRITDSDLKGELFIKELLWMLRHQKDIFNNLARQFQKEVLCPNKCGVMSQTLIWCLKCEKQLHICRKSLDCGERHIEVHRSEDLVLDCLLSWHRASKGLTDYSFYRVWENSSETLIAKGKEPYLTKSMVGPEDAGNYRCVLDTINQGHATVIRYDVTVLPPKHSEENQPPNIITQEEHETPVHVTPQTPPGQEPESELYPELHPELYPELIPTVAQNPEKKMKTRLLILLTLGFVVLVASIIISVLHFRKVSAKLKNASDEVKPTASGSKSDQSLSQQMGLKKASQADFNSDYSGDKSEATEN
binding [5]: binds weakly

Source: article PMC9374335, “C11orf94/Frey is a key regulator for male fertility by controlling Izumo1 complex assembly” (Science Advances, 2022)
